The values below come from the RNAGym collection of RNA variant scans (doi:10.7554/elife.90254).

The source gives no read counts; variants with many changes may rest on few reads.

Sequences and labels used below:
B1: LINE1-mini (parent)
chain: GGCAGAGCUCAACACAGCGUGGCAAAGUGGCUGUGGCUAGACUGCC

Variants of B1 are the subject of this data set. Kind of data set: self-cleavage, relative activity (ratio to wild type); higher = more cleavage; in vitro, sequencing; the parent is a self-cleaving ribozyme.
In the case of C3G A6U C42A, the self-cleavage was determined as 0.18. Regarding C3G C10G C37U, the self-cleavage was 0. Turning to C3G C10U C13A C18G C31G, the self-cleavage was found to be 0.02. As to C3A G33A C42A, the self-cleavage came out at 0.14. Consider C3G A24G G35A, for which the self-cleavage was 0.09. As to C3G A6G A11U, the self-cleavage amounted to 0. For the variant C3A G22U G29U C31A G40U, the self-cleavage was determined as 0.15. Turning to C3A G27C A39G, the self-cleavage came to 0.32.

C3G A11U A12G: the self-cleavage worked out at 0.06. With C3A G33C C42U G44A C46U, the self-cleavage was 0.04. The result for C3G A6U A26C G44C reads 0.45.

For C3A U43C C46U, the self-cleavage came out at 0.08. For C3G A11C A16C A41C, the self-cleavage is 0. C3G A12C A16C A25C G35U G40C: the self-cleavage is 0. As for C3G A6C G27A, the self-cleavage turned out to be 0.51. Turning to C3A U28C A39G C45U, the self-cleavage worked out at 0.03.

As for C3A U20C G22C A24U C31G C45U, the self-cleavage is 0.11. Take C3G A16C G29A: the self-cleavage is 0.25. The result for C3G A16U C18A G33U U43C reads 0.01; that for C3G A4G G5A C8U, 0.41; that for C3G C13U U20A C46A, 0.07. As to C3G A6G U20A, the self-cleavage was determined as 0.03.

As for C3G A4U C10U A11G G44A, the self-cleavage was 0.01. For the variant C3G A6C C18U A26U C31G C42U, the self-cleavage stood at 0.05. With C3A G30A U32C, the self-cleavage worked out at 0.27. The value for C3G A16U A24U G27C G30A was 0.06; that for C3G A4C G7A A11C was 0.02; that for C3G A6C C23A was 0.47. Turning to C3G C13G A25G G29U A39C C42A C45U, the self-cleavage worked out at 0.05. In the case of C3G C8G G29U, the self-cleavage was 0.45. Take C3A U9A C13G C15G A16U G29C G30U G40A: the self-cleavage turned out to be 0.02. On to C3A G30A A39G, for which the self-cleavage stood at 0.1. As to C3G A12G A14U C18U G29U, the self-cleavage is 0.04. Take C3G C13G G22A C31A G33C C46A: the self-cleavage came out at 0.05.

As to C3G A11U C23U A25U, the self-cleavage worked out at 0.04. The value for C3G A4U G7A G40U was 0.3; that for C3G A11G C37A C45A was 0.02; that for C3A G29U C31U was 0.06. Consider C3G A4C A12G, for which the self-cleavage was 0.31.

For the variant C3G A14C A16C U20C G40A, the self-cleavage came out at 0.02. As to C3A G27A C46A, the self-cleavage was determined as 0.2.

As to C3G C10U A26U U28A G36C, the self-cleavage was 0.09. Take C3A U32C G40C: the self-cleavage is 0.09. Take C3A U28G G44U: the self-cleavage came out at 2.8. The result for C3A G29C U38A A39U reads 0.24. C3G A11C C15U A16U G19C G27A G30C: the self-cleavage came to 0.02.

As to C3G A4C C13A C15G G22C C23U, the self-cleavage amounted to 0.04. For C3G A11C U20C G21C G22U U28A G40A, the self-cleavage worked out at 0. Consider C3A G44U C46G, for which the self-cleavage is 0.74. Turning to C3G A11G A26C, the self-cleavage came to 0.01. For C3G A39G G40A, the self-cleavage worked out at 0.26. In the case of C3A U28C C37A A39G C42U, the self-cleavage stood at 0.03.

As to C3G A4C A6G A12G G22U, the self-cleavage came to 0.01. As for C3G C8A A12U A14G G44C, the self-cleavage was 0.07. For the variant C3G C8G C46A, the self-cleavage stood at 0.03. Regarding C3A U9A C15A G27C G33U, the self-cleavage amounted to 0.13. As to C3A U9A C15A G27C G33A, the self-cleavage worked out at 1.56. Consider C3G C10A U20A, for which the self-cleavage stood at 0.02. The value for C3A U32G G36A was 0.1. Take C3G A24C C31A: the self-cleavage worked out at 0.09. On to C3G A4G A26U, for which the self-cleavage came out at 0.23. Turning to C3G C8A A14G U34C, the self-cleavage was 0.06. C3G A4G C10G G29U G33U G40C G44A: the self-cleavage is 0.01. In the case of C3G A12G C37G, the self-cleavage amounted to 0.04. As to C3G A11C G36U U38A, the self-cleavage was determined as 0.01. The value for C3G A25C C46A was 0.06; that for C3G C13G G22U G29U C31A C37A was 0.09; that for C3G A11C G19U G27A U28A C37G A41U was 0. As for C3A G27A C37G, the self-cleavage was 0.08. The result for C3G C8U U20A G22A reads 0.28; that for C3A U43G C46U, 0.47; that for C3A U9A A14G C18U, 0.18. C3G A25U G40A: the self-cleavage was 0.11. For C3A G27A C42A C45G, the self-cleavage came to 0.2.

Consider C3G A39C G44U, for which the self-cleavage was found to be 0.07. The result for C3A U9G A14G A24U G40U reads 0.25; that for C3A U9A C31A G40A, 0.07; that for C3G A16U C23U A26U, 0.15. The value for C3G A16U A25G A39U A41C C45G was 0.01; that for C3A U9G C37A G44U was 0.16. The value for C3G A4C G21U was 0.14.

As for C3G A4G G5U G7C U32C C45G, the self-cleavage was 0.01.

As for C3G A4C U38A, the self-cleavage was determined as 0.14. Regarding C3G A6U G21U, the self-cleavage was determined as 0.33. With C3A G30U C37A G40A C46U, the self-cleavage came out at 0.37. Take C3G A6G G27C: the self-cleavage turned out to be 0.04.

As for C3G A4G U32C C37G, the self-cleavage stood at 0.08.

In the case of C3G A16G G27C G33U, the self-cleavage was determined as 0.09. For the variant C3G A26U G29U C46U, the self-cleavage was 0.85.

With C3A G36A C42A, the self-cleavage came to 0.41. The value for C3A G30A C37G was 0.84; that for C3A G33A C42U G44A was 0.18; that for C3G C10G C18A U28G C31A was 0.02. Regarding C3A U20A G27U A41C C45A, the self-cleavage was 0.02.

Turning to C3G C8G A11C C13U C18G G35A C37A, the self-cleavage was found to be 0.02. In the case of C3G C10A U38A, the self-cleavage came to 0.06. Take C3G A24G A39U: the self-cleavage is 0.17. As to C3G C13A G21C G22C, the self-cleavage was 0.03. On to C3A G27U G30A G40A, for which the self-cleavage worked out at 0.16.

Regarding C3G A4U G17A G33A U38G A41C C42A, the self-cleavage is 0.02. For the variant C3G C10A A14G C42A, the self-cleavage was determined as 0.02.

C3G A14U C42A: the self-cleavage was 0.09. The result for C3G C8A G21A G29A G30U U38A G40A reads 0.16; that for C3G A11U C37U, 0.01.

For the variant C3A U9A C10A A39U C46A, the self-cleavage is 0.08.

Turning to C3G C10A G19U, the self-cleavage was determined as 0.01.

As to C3G C10A G19A C23U, the self-cleavage amounted to 0.09. C3A U9G G29C G33A C46A: the self-cleavage worked out at 0.04. Consider C3G A25U C42A, for which the self-cleavage is 0.19. The value for C3G A16G G21U C31A G36A C46G was 0. For C3G A4U G5A, the self-cleavage was 0.37.

For C3G C13A A24G G27A, the self-cleavage amounted to 0.36. With C3A U9G C18U A26C C42U, the self-cleavage stood at 0.92. For C3G A11C G44C, the self-cleavage turned out to be 0.12. Take C3G A6U C46U: the self-cleavage is 0.62. For C3A G36C U38C C45U, the self-cleavage worked out at 0.08. The value for C3G A6C C18G U34C was 0.09; that for C3G A16C C18A G22A A41G was 0.09; that for C3G A12C A25C G30U G33U G44U was 0.

As to C3G C8U A25G G30A G44A, the self-cleavage was found to be 1.6. Take C3A G33C C37U: the self-cleavage was 0.1. The value for C3A G33C C37A was 0.03; that for C3A U9A A16U G22C was 0.16.

C3G C8U A25C: the self-cleavage is 0.35. With C3G A11G G22A, the self-cleavage stood at 0.05. Regarding C3G A26G U28C C31U, the self-cleavage was found to be 0.11. On to C3G A11C G27U G30A C42G G44U, for which the self-cleavage turned out to be 0.01. On to C3A U20C C37G, for which the self-cleavage turned out to be 0.22. As to C3A U9A C10U C13A G21C A26U G29A G36A, the self-cleavage amounted to 0.7.

Consider C3G A16C C23G, for which the self-cleavage came to 0.03.

For C3G A6C A14C G17C A26G G27A A41C C42U, the self-cleavage amounted to 0.01. The value for C3G A25G G29U was 0.13; that for C3G C10A G29A G30U C45U was 0.11; that for C3A U28G A41U C46A was 0.19. For C3G C8G U9A G21A G29U, the self-cleavage is 1.98. Turning to C3A G33C G44C, the self-cleavage came out at 0.02. On to C3G A12G C13A A41C, for which the self-cleavage was found to be 0.02.

As for C3G A14U G22A U32G A39G U43C, the self-cleavage was 0.17. For the variant C3G A16U A24U, the self-cleavage worked out at 0.08. The result for C3A G40A A41G reads 0.11; that for C3G A14C U28G G29A, 0.03; that for C3G C10A A14C A24C A25U, 0.

As for C3A U20G G22C G35C G36A G44A, the self-cleavage is 0.06. Consider C3A U9G G29U, for which the self-cleavage amounted to 0.57. Turning to C3A U20C G22U A26G A39U C42U, the self-cleavage is 0.09.

With C3A G27U G33U, the self-cleavage came out at 0.14. For the variant C3G A12C A24U C42A, the self-cleavage came to 0.01. With C3A U9G C45U, the self-cleavage was found to be 0.3. The value for C3G A14C U28C A39U was 0.02; that for C3G A16G G22C U28C was 0.02.

In the case of C3G A6U A25U G33U A39C, the self-cleavage turned out to be 0.14. With C3G C13U G17A G22C G27C G29U, the self-cleavage amounted to 0.1. As to C3A G29C G30C, the self-cleavage was 0.05. Take C3A G30A C37U G44A: the self-cleavage amounted to 0.14. On to C3G A16U U20A C23U U34A C45U, for which the self-cleavage is 0.01. The result for C3G A6U C8U A16G A25G reads 0.1. The value for C3A G27C U43A was 0.16; that for C3G A25U U34A was 0.02; that for C3A G22U G29A G40U was 0.08.

Take C3G A11U G30A G36U: the self-cleavage was found to be 0. The value for C3G C10U A12C A24C A25G was 0.03. Consider C3G C10A A12C A14C A39C, for which the self-cleavage was 0. The value for C3A U20A C23U was 0.12. With C3G A4G C10U U28G U38G G44A, the self-cleavage is 0.02. As for C3G A6C A11G C13G A14G G36A, the self-cleavage turned out to be 0.02. In the case of C3A G29A G30A G40C, the self-cleavage was determined as 0.05. For C3G A11C A24C A26G, the self-cleavage came to 0.01.
